In PubChem BioAssay AID1963576 (National Center for Advancing Translational Sciences (NCATS), 2024):
In all, about 46,000 compounds went through this assay and about 60 (0.1%) were called active. Roughly 3% stayed inconclusive and do not appear here. Calls come from the whole dose curve; as a rule, active = well fitted inhibition curve with a large enough effect; inconclusive = small, poorly fitted or top-dose-only effect; inactive = no such curve, though single readings can be large or run the other way. The list shows a part of the results.

assay: Primary qHTS assay for Inhibitors of ovarian cancer metastasis using an organotypic tumor microenvironment (TME) model.; note: nearly all actives have a fitted effect of over 65% in size;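 for activity change, negative = inhibition: plate controls were DMSO wells for no effect and tomatine positive control wells for full effect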; conditions: SKOV3ip1-GFP adhesion/invasion on 3D omental model, fluorescence; series mostly up to 45.8 µM; activity change, negative = inhibition: at the top concentration
Outline: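 A 3D layer of primary human omental fibroblasts, mesothelial cells, fibronectin and collagen I, grown 48 hr, received SKOV3ip1-GFP cells in serum-free medium plus compounds at 0.36-46 umol/L. After 2 hr RT and 16 hr 37 C, fixed adherent GFP cells were counted; normalized to DMSO and tomatine.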

Activity change, negative = inhibition, inactive:
O=C(CSc1nc2c(c(=O)[nH]1)CCC2)Nc1cc(C(F)(F)F)ccc1Cl 1.56%, Cc1cccc(-c2nc(S(=O)(=O)c3ccccc3)c(N3CCN(c4ccccc4)CC3)o2)c1 -5.56%, COc1ccc(NCc2cccn2-c2nnc(N3CCC(C)CC3)s2)c(OC)c1 -7.78%, CCOC(=O)c1cc(S(=O)(=O)Nc2cc(C)c(Cl)cc2OC)[nH]n1 7.81%, COc1c(Cl)cc(Cl)cc1C(=O)Nc1cccc2cccnc12 3.64%, CCc1cccc(NC(=O)CSc2nccn2C)c1 4.08%, Cc1ccc(C(=O)c2cn(Cc3ccccc3)c3cc4c(cc3c2=O)OCCO4)cc1 9.09%, Cc1cc(C)cc(Nc2ncnc3sc4c(c23)CCCC4)c1 -4.9%, Cc1ccn2c(Nc3ccc(C(C)C)cc3)c(-c3ccsc3)nc2c1 -3.65%, Cc1cccc(Cn2c(CNC(=O)c3ccccc3)nc3ccccc32)c1 -0.756%, Cc1nn(C(C)C(=O)Nc2cccc(F)c2)c(=O)c2c1sc1ccccc12 (stereo unspecified) 4.7%, COCCNC(=O)CCSc1nc(-c2ccc(OC)cc2)cc(C(F)(F)F)n1 2.12%, CCCCCOc1ccccc1Cn1c(=O)oc2ccc(C)cc21 1.62%, O=C(Cn1c(-c2cccs2)cc2ccccc21)NCCCN1CCN(c2ccc(F)cc2)CC1 13%, Cc1ccccc1C(OCCN(C)C)c1ccccc1 (stereo unspecified) 25.2%, O=C(NC1CCCC1)c1ccc(CSc2nc3cccnc3n2Cc2ccccc2F)cc1 -0.336%, CC1CCCN(Cc2c(O)ccc3c(=O)c(-c4ccccc4Cl)c(C(F)(F)F)oc23)C1 (stereo unspecified) 1.11%, O=C(COc1ccc(Cl)cc1)N(Cc1ccco1)c1ccccn1 -1.65%, Cc1cc(C)c(NS(=O)(=O)c2ccc3c(c2)NC(=O)CCS3)c(C)c1 6.4%, CCC(C)Cn1c(/C=C/c2ccccc2)nc2ccccc21 (stereo unspecified) -3.67%, CCCCn1c(=O)c2oc3ccccc3c2n(Cc2cccc(F)c2)c1=O 1.04%, O=C(CSc1oc(-c2ccco2)nc1S(=O)(=O)c1ccc(Br)cc1)c1ccccc1 0.317%, CCS(=O)(=O)c1ccc(O)c(Nc2cc(C)nc(SC)n2)c1 3.8%, CCC(=O)C1=C(c2ccc(Cl)cc2)N(C(=O)CC)n2c(C)nnc2S1 -21%, Cc1ccc(S(=O)(=O)C(CNC(=O)c2ccc(F)c(F)c2)c2ccco2)cc1 (stereo unspecified) 8.62%, Cc1cncc2cccc(S(=O)(=O)N3CCCN(C(=O)CN)C[C@@H]3C)c12 2.42%, CC1CCN(S(=O)(=O)c2nnc(NC(=O)c3ccc(C(C)C)cc3)s2)CC1 -0.328%, O=C(CCCN1C(=O)c2cccnc2Oc2ccc(Cl)cc21)NCc1ccccc1F 14.3%, COc1ccc2cc(-c3nc(-c4ccc(S(C)=O)cc4)[nH]c3-c3ccncc3)ccc2c1 (stereo unspecified) 0.892%, CC(C)c1cnc2c(c1SCC(=O)Nc1ccc(OC(F)(F)F)cc1)c(=O)n(C)c(=O)n2C -6.5%, O=C(c1cc(-c2cccc(Cl)c2)on1)N1CCN(c2ccccc2)CC1 -8.33%, Cc1ccc(NC2=C(CC(=O)O)C(c3ccc(F)cc3)N(c3ccc(C)cc3)C2=O)cc1 (stereo unspecified) -9.35%, Cc1ccc(CNC(=O)CCN2C(=O)COc3ccc(C)cc32)cc1 11.7%, CCc1nnc2c(Nc3cccc(F)c3)nc3ccc(C(=O)c4ccccc4)cc3n12 1.65%, CCOc1ccccc1NC(=O)N(Cc1ccc(F)cc1)C1CCN(CC)CC1 -9.02%, Cc1ccsc1CN(C(=O)c1oc2ccc(F)cc2c1C)C1CCS(=O)(=O)C1 (stereo unspecified) -1.06%, COc1ccc(NC(=O)c2c(NCc3ccc(N(C)C)cc3)sc3c2CCC3)cc1 4.53%, Cc1ccc(CNC(=O)CC(C)CC2=NS(=O)(=O)c3ccccc3N2)cc1 (stereo unspecified) 1.22%, CCc1ccc(N2CCn3c2nc2c3c(=O)n(C/C=C/c3ccccc3)c(=O)n2C)cc1 -1.63%, COc1cccc(CNS(=O)(=O)c2cc3[nH]c(=O)c(=O)[nH]c3cc2C)c1 8.08%, CCc1ccc(NC(=O)c2ccc(F)c(S(=O)(=O)N3CCC4(CC3)OCCO4)c2)cc1 15.9%, Cc1ccc(C)c(-n2c3nc(=O)[nH]c(=O)c-3cc3c(C)nn(-c4ccccc4)c32)c1 9.88%, CCOc1ccc(-c2nonc2NC(=O)c2oc3cc(C)c(C)cc3c2C)cc1OCC 4.39%, Cc1ccc(NC(=O)C2CCCN2S(=O)(=O)c2cccc3nsnc23)c(C)c1 (stereo unspecified) 0.693%, Cc1ccccc1Cn1c2ccccc2c2cnn(CC(=O)NC(C)CCc3ccccc3)c(=O)c21 (stereo unspecified) 23.9%, COC(=O)c1ccc(NC(=O)CN(CCc2ccccc2)S(=O)(=O)c2ccc(OC)cc2)cc1 3.15%, CCOc1ccc(-n2c(SCC(=O)N3CCC(C)CC3)nc3c([nH]c4ccccc43)c2=O)cc1 -4.66%, CCn1c(C(=O)NCc2ccc(OC(C)C)cc2)cc2oc3ccccc3c21 3.95%, CCOc1ccc(C(=O)NCCc2sc(-c3ccc(OC)c(OC)c3)nc2C)cc1 -10.8%, Cc1ccccc1OCC(=O)Nc1sc2c(c1C(=O)OC(C)C)CCCC2 0.385%, Cc1ccc(C)c(N2CCN(C(=O)c3cc(C)nc4c3c(C)nn4-c3cccc(F)c3)CC2)c1 -6.15%, Cc1ccc(C)c(N2CCN(c3ccc4cc(S(=O)(=O)N5CCC(C)CC5)ccc4n3)CC2)c1 -2.47%, COc1ccccc1NC(=O)c1cc(S(=O)(=O)N2CCN(c3ccccc3Cl)CC2)ccc1F 1.27%, COC(=O)c1ccc(C2c3c(oc4ccccc4c3=O)C(=O)N2c2nc(C)c(C(=O)OC)s2)cc1 (stereo unspecified) 0.693%, O=C(Nc1cc(Cl)cc(Cl)c1)c1ccc2c(c1)N(Cc1cccc(Cl)c1)C(=O)c1ccccc1S2=O (stereo unspecified) -4.57%, Cc1nn(CC(=O)O)c(=O)c2cc3cc(F)ccc3n12 -2.41%, COc1ccc2c(CNCc3cccs3)c(C(=O)O)n(Cc3ccc(C)cc3)c2c1 7.2%, Cc1ccc2c(c1)c(=O)c1ccccc1n2CCCC(=O)Nc1cc(Cl)ccc1C 1.68%, Cc1oc2ccc(O)c(CN3CCN(C)CC3)c2c1C(=O)Nc1cccc(Cl)c1C -7.39%, Cc1cccc(-n2c(=O)c3c(c4cc(C)ccc4n3C)n(CC(=O)NCC3CCCO3)c2=O)c1 (stereo unspecified) -1.68%, CCCOc1ccc(C(=O)Nc2cc3c(cc2N2CCOCC2)n(C)c(=O)n3C)cc1 -26.7%, Cc1cccc(N2C(=O)C(CC(=O)Nc3ccc(Cl)cc3)N(Cc3ccco3)C2=O)c1 (stereo unspecified) -2.91%, Cc1cc(-c2ccc(CC(=O)Nc3ccc(-c4cccnc4)cc3)cc2)ccn1 -11.8%, COC(=O)c1scc(-c2ccc(C)cc2)c1S(=O)(=O)Nc1ccc(F)cc1F -0.627%, Cc1ccc(CN2CCCn3nc(C(=O)NC(C)C)cc3C2=O)cc1 12.6%, CC(=O)Nc1nonc1-c1nnc(SCC(=O)Nc2cccc(F)c2)n1-c1ccccc1 0.738%, Cc1ccc(N2CCN(S(=O)(=O)c3cc(C(=O)Nc4cc(Cl)cc(Cl)c4)ccc3F)CC2C)cc1 (stereo unspecified) -4.07%, O=C(Nc1ccc2oc(-c3cccnc3)nc2c1)c1ccc(Br)cc1 1.96%, COc1ccc(NC(=O)Cn2c(=O)n(Cc3nc(-c4ccccc4)no3)c(=O)c3cc4c(cc32)OCO4)c(OC)c1 -7.19%, COc1ccccc1N1CCN(c2ccc(=O)n(CC(=O)NCc3ccc(OC(C)C)cc3)n2)CC1 -20%, Cc1ccc(NC(=O)Cn2cc3c(n2)CCCC3)c(Cl)c1 -1.7%, COc1ccc(C)cc1NC(=O)Cn1c(=O)c(C(F)(F)F)nc2ccccc21 -9.84%, COc1ccc(-n2nc(C(=O)N3CCN(c4ccc(F)cc4)CC3)c3c4ccccc4n(C)c3c2=O)cc1 -6.69%, O=C(Nc1ccc2oc(-c3cccnc3)nc2c1)c1ccc(-c2ccccc2OC(F)(F)F)o1 2.82%

outcome, inactive:
CCc1ccc(NC(=O)C(=O)NCCc2sc(-c3ccc(C)cc3)nc2C)cc1, CSc1ccc(-c2nc3cc(C)ccn3c2Nc2ccc(C)cc2)cc1, Cn1ccc2c(OCC(=O)NCc3ccc(F)cc3)cccc2c1=O, Cc1cc(C)c(NC(=O)Nc2sc3nc4n(c(=O)c3c2C)CCC(C)CC4)c(C)c1 (stereo unspecified), CC(=O)c1ccc(NC(=O)CSc2nnc(NC(=O)NC3CCCCC3)s2)cc1, CC(C)OCCCNC(=O)c1c2c(nc3ccccc13)C(=O)N(C1CCCCC1)C2, Cc1ccc(Nc2c(-c3ccc(N4CCOCC4)cc3)nc3ncccn23)c(C)c1, CCOC(=O)c1cccc(NC(=O)c2cc3c(=O)n(C)c4ccccc4c3n2C)c1, Cc1ccc(Nc2ncc(C(=O)N3CCN(c4ccc(F)cc4)CC3)c3ccccc23)cc1Cl, N#Cc1ccc(C(=O)NCc2ccc3c(c2)CCN3C(=O)c2ccc(F)cc2)cc1, CCOC(=O)c1ccc(N2C(=O)c3n[nH]c(C)c3C2c2ccccc2OC)cc1 (stereo unspecified), CCc1ccc2oc(C(=O)Nc3c(C)n(C)n(-c4ccccc4)c3=O)cc(=O)c2c1, Cc1cccc(Cn2nc(C)n3c(cc4cc(C)ccc43)c2=O)c1, Cc1cccc(CCNc2ncnc3onc(-c4ccc(Cl)cc4)c23)c1, Cc1oc(-c2cccc(Cl)c2)nc1CS(=O)(=O)CC(=O)NCc1ccccc1Cl, CC(=O)c1ccc(NC(=O)C2Cc3ccccc3N2C(=O)c2ccccc2)cc1 (stereo unspecified), Cc1nn(CC(=O)NCc2ccc(Cl)cc2)c(=O)c2cc3sccc3n12, COc1ccc(Oc2c(C(F)(F)F)oc3c(CN4CCCC(C)C4)c(O)ccc3c2=O)cc1 (stereo unspecified), CN(C)S(=O)(=O)c1ccc2c(c1)N(CC(=O)NCc1ccc(F)cc1)C(=O)CS2, CC1=C(c2ccc(C)cc2)S(=O)(=O)NC1=NCCCN1CCN(c2ccccc2F)CC1, COc1ccc(-c2cc3ccc(O)c(CN4CCC(C)CC4)c3oc2=O)cc1, COc1ccc(-n2nc(C(=O)Nc3cc(OC)c(OC)c(OC)c3)c(=O)n(C)c2=O)cc1
